Assay results reported in PubChem BioAssay AID504466 (National Center for Advancing Translational Sciences (NCATS), 2011).
Screen size: about 330,000 compounds; about 4,200 (1.3%) were called active. This list was built around the results that the source calls inconclusive (neither active nor inactive); the mix of calls is not that of the screen. The call rests on the fitted dose curve; in most records, active means well fitted activation curve with a large enough effect; inconclusive means small, poorly fitted or top-dose-only effect; inactive means no such curve, though single readings can be large or run the other way. A potency beside an inconclusive call is a rough fit, not a confirmed value.

Assay: qHTS screen for small molecules that induce genotoxicity in human embryonic kidney (HEK293T) cells expressing luciferase-tagged ELG1; further: nearly all actives have a fitted effect of over 60% in size
Settings: HEK293T ELG1-luciferase reporter, luminescence, 16 h; series mostly up to 46 µM
In short: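 DMSO vehicle served as control against compound-treated ELG1-luciferase HEK293T cells; exposure lasted 16 hr at 37 °C and 5% CO2, followed by ONE-Glo luminescence detection after 30 min.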
Potency means the concentration at half of the fitted maximal effect; tags describe the fitted curve by direction and shape.

Structure (SMILES) | Potency
COc1cccc(Nc2nc(-c3ccc4c(c3)OCCO4)cs2)c1 | inconclusive: 4.11 µM [activator, full curve, poor fit]
S=c1[nH]nc(-c2ccc3ccccc3n2)o1 | inactive
CCCc1nc(Nc2nc3ccccc3o2)nc(C)c1C(=O)OCC | inconclusive: 3.66 µM [activator, partial curve]
CC(=O)N(c1nnc(-c2ccc(C)cc2)s1)C1CCCC1 | inconclusive: 14.6 µM [activator, partial curve, poor fit]
O=C(CNC(=O)c1cccs1)c1ccc([N+](=O)[O-])cc1 | inconclusive: 23.1 µM [activator, single point]
O=C(NC(=S)Nc1ccccc1C(F)(F)F)c1ccccc1F | inactive
O=C(N/N=C/c1c[nH]c2ccccc12)c1cc(-c2ccc(-c3ccccc3)cc2)n[nH]1 | inactive
CNC(=O)c1ccc2nc(NC(C)=O)sc2c1 | active: 18.4 µM
CC(C)NC(=O)CSc1nc(N)c(-c2ccccc2)c(=O)[nH]1 | inactive
CC(=O)Nc1ccc(/C=N/NC(=O)c2cc3cc(C)ccc3nc2C)cc1 | inconclusive: 13 µM [activator, partial curve, poor fit]
Nc1ccc(C(=O)OCC(=O)N2CCOCC2)cc1[N+](=O)[O-] | inconclusive: 18.4 µM [activator, single point]
COc1cc(Nc2c3c(nc4ccccc24)CCC3)cc(OC)c1OC | inconclusive: 13 µM [activator, partial curve]
c1ccc(-c2nnc(-c3ccccn3)s2)nc1 | inconclusive: 0.366 µM [activator, full curve]
S=C(Nc1ccccc1)N1N=CCC1c1ccccc1 (stereo unspecified) | inconclusive: 20.6 µM [activator, single point]
Cc1cccc(C#Cc2ccccc2)n1 | active: 8.2 µM
O=C(C1CC1)N1c2ccccc2Sc2ccccc21 | inactive
COCCSc1nnc(NC(=O)CS(=O)(=O)c2ccccc2)s1 | inactive
COc1ccc(C(=O)NC(=S)Nc2ccc3[nH]c(=O)[nH]c3c2)c(OC)c1 | inactive
CC(NC(=O)CN1CCN(c2ccccc2F)CC1)c1ccccc1 (stereo unspecified) | inactive
Cc1ccc(OCC(=O)Nc2ccc(Cl)cc2)c([N+](=O)[O-])n1 | inconclusive: 6.51 µM [activator, partial curve]
N=c1c(C(=O)NCCN2CCOCC2)cc2c(=O)n3ccccc3nc2n1CCCN1CCOCC1 | inactive
Cc1[nH]nc(N)c1N=Nc1ccc(Br)cc1 | inactive
O=C(c1ccccc1)C1Oc2ccccc2C2CC(c3cccs3)=NN12 (stereo unspecified) | inactive
C=CCN1C(=O)C2C(C(=O)NC3CCCC3)C3(C)C=CC2(O3)C1C(=O)NC1CCCC1 (stereo unspecified) | inactive
CCCn1c(N)c(N2CCCCC2)c(=O)n(CC(=O)Nc2ccc(C(C)=O)cc2)c1=O | inactive
O=C(Oc1ccc(-c2cnc3ccccc3n2)cc1)c1ccco1 | active: 16.4 µM

Structure (SMILES) | Potency
CCc1c(C)nc(N2CCN(c3ccc(OC)cc3)CC2)[nH]c1=O | inactive
Cc1nc(NC(=O)CSc2nnnn2C)sc1C | inconclusive: 16.4 µM [activator, partial curve]
C=CCn1c(-c2ccccc2)c[nH]c1=S | active: 13 µM
O=C(/C=C/c1ccco1)c1ccc(O)cc1 | inconclusive: 25.9 µM [activator, partial curve, poor fit]
N#CCC(=O)c1ccccc1Oc1ccc(Cl)cc1 | inactive
CCOC(=O)c1c(NC(=O)c2c(-c3ccccc3)noc2C)sc(C)c1-c1ccccc1 | inactive
CCN(CC)C1CC(=O)N(c2cccc(Cl)c2)C1=O (stereo unspecified) | inactive
Cc1nn(-c2ccccc2)c(Cl)c1/C=N/NC(=O)c1ccc(NS(=O)(=O)c2cccs2)cc1 | inconclusive: 11.6 µM [activator, partial curve]
Cc1cccc(NC(=O)CSc2nccn2Cc2ccco2)c1C | inconclusive: 20.6 µM [activator, partial curve, poor fit]
CC(=O)c1c(C)[nH]c(C(=O)Nc2cccc(S(=O)(=O)N3CCCC3)c2)c1C | active: 16.4 µM
COc1ccc(Nc2nc(CC(C)=O)ns2)cc1 | inconclusive: 16.4 µM [activator, partial curve, poor fit]
NS(=O)(=O)c1cccc(NC(=O)CSc2nnc(-c3ccccc3F)n2C2CC2)c1 | inactive
CC(=O)c1ccc(S(=O)(=O)N(Cc2cc3cc4c(cc3[nH]c2=O)OCCO4)CC2CCCO2)cc1 (stereo unspecified) | inconclusive: 29.1 µM [activator, single point]
Cc1ccc(-c2nnc(SCC(=O)NC3CC3)o2)cc1 | inactive
Clc1ccccc1N=C1NN=C(c2cccs2)CS1 | inconclusive: 4.11 µM [activator, full curve]
CSc1ccc(C2N=C(c3ccccc3)NO2)cc1 (stereo unspecified) | inconclusive: 2.06 µM [activator, full curve]
O=C(Cc1ccc(S(=O)(=O)N2CCOCC2)s1)Nc1ccc(N2CCOCC2)cc1 | inconclusive: 23.1 µM [activator, single point]
Cc1cccc2c(N=Nc3ccccc3)c(O)[nH]c12 | active: 5.17 µM
CC(C)c1ccc(NC(=O)C2=CC=CN3CCS(=O)(=O)N=C23)cc1 | inconclusive: 23.1 µM [activator, partial curve, poor fit]
Cc1ccc2nc(SCC(=O)NC3CC3)[nH]c2c1 | inconclusive: 25.9 µM [activator, single point]
Cc1ccc(NC(=O)c2cncc(Br)c2)nc1 | inconclusive: 8.2 µM [activator, partial curve]
O=C(NCC(=O)N1CCCCCC1)c1ccc(Cl)cc1 | inconclusive: 23.1 µM [activator, single point]
CCn1c(=O)cc(OCC(=O)NCCCN2CC(C)CC(C)C2)c2ccccc21 (stereo unspecified) | active: 16.4 µM
COc1cc(NC(=O)c2cc(-c3ccccc3)on2)cc(OC)c1OC | inactive
Cc1ccc(N=Nc2c(O)ccc3n[nH]nc23)cc1 | inconclusive: 10.3 µM [activator, partial curve]
